# According to the RNAGym collection of RNA variant scans (doi:10.7554/elife.90254):
# The source gives no read counts; variants with many changes may rest on few reads.
# B1: LINE1-full (parent)
# chain: UACGUAGGUGGUUUUCCCCUGAUAGUGCUAAGGGGGCCUGGAAGUUUGGACUGGGCAGAGCUCAACACAGCGUGGCAAAGUGGCUGUGGCUAGACUGCCUCUCUGGAUUCCUCGUCACUCAGCAGGGCAUCUCUGAGAGAAAUGCC
# Variants of: B1
# Test: self-cleavage, relative activity (ratio to wild type); higher = more cleavage; in vitro, sequencing; the parent is a self-cleaving ribozyme
row,Variant,self-cleavage
1,U9A A64G A79U U115C,0.92
2,U15C U46A U91A A92U,1.09
3,G60A A77G U112G,0.04
4,A79G G80A U134C,0.98
5,U91C A94U A138G,0.08
6,A57G U112C U143A,0.39
7,U62C A79G U102C,0.09
8,U87C G125C A142G,0
9,U5C U15A U29A U130C,0.84
10,A2G C37G A42G A92U C131U A136G,1.05
11,A6G A30G U73C U109C C118U,0
12,G40A A57U A121U G127A,0.03
13,U73A A77G U112C,2.77
14,U100C A107G A136G A141G,1.58
15,A24G A94G G122A,0.33
16,U15C C51U A140U A141G,1.21
17,U39A A69G A129G,0.19
18,U47A A79U U143C,2.34
19,U62C U119A A129U A138C,0.05
20,U39C G44A U46C A59U U62C,0.18
21,A59G U73C U96A,0.08
22,A30G A78C U134C A140G,0.84
23,C19U A64U A65G U115G U132C,0
24,U39A A43G G58A C120A A136U,0.03

row,Variant,self-cleavage
1,U14A U109C A121G U130C A142G,1.02
2,A24G U26A A43G A129G,0.88
3,A22G U46A A77U,1.32
4,G33U A94G U115A,0.26
5,A67C U102C A142G,0.03
6,U13A A64G U81A U96C C111A,0.02
7,A94G U100C U134C,0
8,U12C A50G A59U,0.66
9,U12A A57G G74A G137A,0.73
10,A65G U108C A129U U132A,0.04
11,U26C C61U U104A,0.04
12,U46A A64G U108C,0
13,G60U C84U U85C U91A U100A,0.04
14,U9C A69G U134C,0.28
15,A22G A42C A77U,1.09
16,U1C U104C C146U,0.58
17,U12C A64U C101U U102C C116A,0.55
18,A6G A64G U132A,0.52
19,A2G C63A A69U A117U U130C,0.18
20,U20C A30G U39A G75A A78C,0.98
21,A22G G35C U47G U85A A140G,0.23
22,U14C A59G A64G,0
23,G11A U39C A59G G86A,0.04
24,G25U A124G A141G,1.27

row,Variant,self-cleavage
1,U5C U14C U96C U108C U143C,0.26
2,U9G U87C U108C,1.67
3,G36A A94U U100C U143C,0.34
4,U13G A59U A79G,0
5,U1G U73A U87A U104C,0.1
6,G8A U12C U29C A31U U85C A140G,0
7,G72A A129G A138G,1.96
8,U14C A78G C103A,0.99
9,A43U G58A A67G U104C U112C,0
10,U5C U26A A43G U102C,0
11,G35C U73A C116U A136G,1.5
12,U46C C71U A140G,1.05
13,U85C U104C U115C,0
14,U14C A24U C90U A121U,0.03
15,U29C A50G C68U G86A U119A,0.16
16,G4A U23A A43G,1.11
17,U62C U96A A142U,0.03
18,U9A A65G A124G U130C,0.51
19,A2G U62A A67C A138G,0.16
20,A59G C103A A129U,0.12
21,G58A U73C G74A U104C A107C U134C,0.12
22,A6G A42G A138G,1.53
23,U81C A124C A141G,0.61
24,A65G U81A U102C,0.05

row,Variant,self-cleavage
1,A42G A92U A129G,0.79
2,A22G C37U U45C,1.06
3,A65C U112C C131U U143C,0.04
4,U52A U81C U85C,0.45
5,A2G U20C U62G,0
6,U15C A42G A77G,2
7,A24U C37G A67G,0.36
8,A42U A65G A138G,0.04
9,A65G G72A A92G C131U,0.08
10,A67U U115A A142G,0.04
11,U9A U14A A141G,0.28
12,U12C U15A U46A G58U C145U,0.22
13,G11A A138U U143A,1.07
14,U20C U23A A69G,1.23
15,U5C A6G U47G U73A U102C C103A U115C,1.31
16,U12A A57U U119C,0.46
17,A77G A141G G144A,2.84
18,U5A U23C U29C G58U A121G A129G A136U,1.21
19,C37U A43U U96A,0.03
20,U1A G7A A65G,0.08
21,C76U U104C U143C,2.82
22,U13G U45C A117U,0.55
23,U12C U26A C37G A77G U109A A136G,1.72
24,A43G G53U A124G,0.92

row,Variant,self-cleavage
1,U5C A92G U100C,0
2,U5A A31U A107G C123U A124G,0.42
3,A57U U62C A136U,0
4,U5C C68U U85C,0.15
5,G74A U87A A136G U143C,0.06
6,U52C A124G A136G,1.31
7,A57G C63U U130C,0.28
8,U14C A59G A64G A77U U108A A136G,0
9,C3U G36A A43U,0.34
10,G4A G34U C123U A138G,1.06
11,U12A U15A A43G U45G C56U A79U G82A U108A U143C,0.38
12,U13C A24G G36C A67U,0.14
13,U15C G88A A136U,0.07
14,A6U A42G U47A A107U,0.71
15,U14C U87C A136U,0
16,G4A G74A A79G,0.83
17,U15A U91G U132C,0.17
18,A6G U108A A129U,0.78
19,U29G G34U U46C G89A U134C,0.11
20,G34U A124G A129G,1
21,U26C G35A A124U,1.14
22,U26A U108C U115C,1.07
23,A6G U87G A94U A136G,0.43
24,A64G A140G A141G,0

row,Variant,self-cleavage
1,U5C A6G U73A,0.58
2,G35A U62A C110U A138U,0.01
3,A24G A57G C71A G135A,0.13
4,U23A G54U A64C U87C,0
5,U15A U29A A78U,1.54
6,U47C A69G U109C,0.66
7,U12C A43G C84A U130C,0.23
8,U46C A124C A142G C145G,1.34
9,U73A A94G A129U,0.18
10,U9C G72A U143A,0.98
11,A69G U115C A129U U132C,0.88
12,U12C U15A A43G U87C,0.77
13,A22U G49A G126A A140U,0.88
14,U85C C110U A136G,0.1
15,U87A A121G A142G,0.1
16,A42G A64U A124G,0
17,A42G A67U G144A,0.27
18,C3U U14A A107G,0.89
19,U9C U20A U87A A124U A138G,0.08
20,U1G A69U U130C,0.19
21,A2G A79C A142G,1.84
22,A59U A94G A136G,2.14
23,U14C U85A U100C,0.24
24,U39A A67U U108C,0.16

row,Variant,self-cleavage
1,A6U A43G A69G,0
2,U23C U26C U47C A59G,0
3,U1C G53U U96A A142U,0.03
4,G34U A117G A129C,1.15
5,U14C G54A A64U U102C,0.2
6,A30G G58A A67G U73C,0.14
7,A6U U73C A124G,0.79
8,U14C U112C A136U,1.95
9,U15C U102C U112A G127A,1.51
10,U9A A22G A138G,1.04
11,U12A U81C U108A,0.88
12,U20A G32A U62C U112C,0
13,A43G A64U G80A U81G G82U,0.82
14,G4A U9C U14C A140C,0.96
15,U15A C56U U104C,0
16,U47C U104C C113U U143C,0.74
17,G10A U102C U112C,1.94
18,U14C A43G A140G,1.9
19,A2G G25A U26A A64U,0.78
20,A42U U62C A117G,0
21,U12G U26C A124G U143A,0.84
22,U9A U12C A142U,0.99
23,U52A C68U C113A U130C,0.19
